From PubChem BioAssay AID651820 (National Center for Advancing Translational Sciences (NCATS), 2012)
In all, about 340,000 compounds went through this assay and about 12,000 (3.5%) were called active. This list was built around the results that the source calls inconclusive (neither active nor inactive); the mix of calls is not that of the screen. Calls come from the whole dose curve; as a rule, active = well fitted inhibition curve with a large enough effect; inconclusive = small, poorly fitted or top-dose-only effect, or another doubt; inactive = no such curve, though single readings can be large or run the other way. Potencies of inconclusive entries are left out as doubtful fits.

assay: qHTS Assay for Inhibitors of Hepatitis C Virus (HCV); conditions: Huh7.5.1 HCVcc-Cre (HCVcc is cell-culture hepatitis C virus) infection, luciferase reporter, 44 h; series mostly up to 41.8 µM
In short: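 1,000 cells/well; 4 h culture; + compound; + HCVcc-Cre (~0.5 moi); 44 h; luciferase substrate, RT 15 min; read 15 sec.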
Potency is the fitted concentration of half-maximal effect; tags give direction and shape of the fitted curve.

SMILES | Potency
COc1cc(CNCCc2ccccc2)cc(Br)c1OCC(=O)Nc1ccccc1C | inconclusive [inhibitor, single point]
Cc1cc(NC(=O)CSc2nnc(-c3ccncc3)n2N)ccc1Br | inconclusive [inhibitor, single point]
O=[N+]([O-])/C=C/c1ccc2c(ccn2Cc2ccccc2)c1 | inconclusive [inhibitor, single point]
C=CCC(c1ccccc1F)N(CCN1CCOCC1)C(=O)Nc1cccc(Cl)c1 (stereo not drawn) | inconclusive [inhibitor, full curve, poor fit]
CCCN1CCCc2cc(CN)ccc21 | inconclusive [inhibitor, single point]
CCN(CC)S(=O)(=O)c1ccc(=O)n(CC(=O)N2CCCc3cc(C)ccc32)c1 | inconclusive [inhibitor, single point]
CCc1ccc(C2=NN(c3ccc(S(N)(=O)=O)cc3)C(c3ccc(F)cc3)C2)cc1 (stereo not drawn) | inconclusive [inhibitor, single point]
O=C(Nc1ccc(N2CCCC2)c(Cl)c1)c1ccc([N+](=O)[O-])cc1 | inconclusive [inhibitor, partial curve]
O=C(c1ccc2c(c1)OCO2)N1CCN(c2ccc(C(F)(F)F)cn2)CC1 | inconclusive [inhibitor, single point]
Cc1ccc(S(=O)(=O)c2nc(-c3ccco3)oc2N2CCC(C)CC2)cc1 | inconclusive [inhibitor, single point]
COc1ccc(C(=O)N/N=C(\C)c2cccc(NC(=O)c3ccc(F)cc3)c2)c(OC)c1 | inconclusive [inhibitor, partial curve]
Cn1c(SCC(=O)NCc2ccc3c(c2)OCO3)ncc(C(=O)Nc2ccc(F)cc2)c1=O | inconclusive [inhibitor, single point]
CCCCC(=O)Nc1ccccc1N1CCN(c2ccc(F)cc2)CC1 | inconclusive [inhibitor, partial curve]
CC(C)(C)c1ccc(C(=O)Nc2cccc3ncccc23)cc1 | inconclusive [inhibitor, single point]
Cn1c(Cc2csc(N)n2)nnc1SC/C=C/c1ccccc1 | inconclusive [inhibitor, full curve, poor fit]
CCOc1ccc(-c2nc(S(=O)(=O)c3ccccc3)c(N3CCC(C(N)=O)CC3)o2)cc1 | inactive
Cc1c(-c2nc(N)nc(Nc3ccc(F)cc3)n2)oc2ccccc12 | active: 10 µM
COc1ccc(S(=O)(=O)N2CCCCCC2)cc1C(=O)N(C)Cc1ccc(F)cc1 | inactive
CCOc1ccccc1/C=C(/NC(=O)c1ccccc1)C(=O)NCC(=O)O | inconclusive [inhibitor, single point]
O=C(O)CCC(=O)N1N=C(c2ccccc2)CC1c1ccc2nccnc2c1 (stereo not drawn) | inactive
CCS(=O)(=O)N1CCC(C(=O)NCc2ccco2)CC1 | inactive
c1ccc(-c2ccc(-c3cn4c(n3)CCC4)cc2)cc1 | inconclusive [inhibitor, partial curve]

SMILES | Potency
CC1CC(C)(O)CC(C(O)CC2CC(=O)NC(=O)C2)C1=O (stereo not drawn) | inconclusive [inhibitor, partial curve, poor fit]
O=c1c2ccccc2nc2n1C(CBr)CS2 (stereo not drawn) | inactive
O=C(CN1C(=O)C(c2ccc(F)cc2)=NC12CCCC2)Nc1ccc(F)cc1 | active: 2.51 µM
CCOC(=O)N1CCN(c2nc(-c3ccc(Cl)cc3)cs2)CC1 | inconclusive [inhibitor, single point]
O=C(NC1=NCCS1)c1csc2ccccc12 | active: 7.08 µM
Cc1ccc(-n2c(-c3ccc(Cl)cc3)c[n+]3c2CCC3)cc1 | inconclusive [inhibitor, partial curve]
Cc1ccccc1C(=O)Nc1cccc(C(=O)N/N=C/c2ccc3c(c2)OCO3)c1 | inconclusive [inhibitor, single point]
COc1ccc(OC)c(C2=CC(=O)C[C@H](c3ccc4c(c3)OCO4)C2)c1 | inconclusive [inhibitor, partial curve]
N/C(=N\OC(=O)c1cccnc1)c1ccccc1Cl | inconclusive [inhibitor, single point]
Cc1nc2c(ncn2-c2ccccc2)c(=O)n1NC(=O)CN1CCN(C)CC1 | inactive
Fc1ccccc1CNC(=S)Nc1cccc(C(F)(F)F)c1 | inconclusive [inhibitor, single point]
O=c1c2sccc2nc(SCc2cc(=O)n3ccccc3n2)n1-c1ccc(Br)cc1 | inconclusive [inhibitor, partial curve, poor fit]
CC(=O)c1c(C)n(C2CCCCC2)c2ccc(O)cc12 | active: 10 µM
Cc1ccccc1OCC(=O)Nc1nc(-c2ccncc2)cs1 | inconclusive [inhibitor, partial curve, poor fit]
COc1ccc(C2=NN3C(C2)c2ccccc2OC3c2cccs2)cc1 (stereo not drawn) | inconclusive [inhibitor, single point]
CC(Oc1ccccc1)C(=O)Nc1nnc(S(=O)(=O)N2CCCCCC2)s1 (stereo not drawn) | inactive
O=C(N=Nc1c(O)[nH]c2ccc([N+](=O)[O-])cc12)c1ccccc1Cl | inconclusive [inhibitor, partial curve]
CC1CCc2nc(NC(=O)c3ccco3)sc2C1 (stereo not drawn) | inconclusive [inhibitor, partial curve, poor fit]
COc1cccc(CN2CCN(Cc3ccon3)CC2CCO)c1 (stereo not drawn) | inactive
Cc1ccc(-c2cc(C(F)F)nc(NCc3cccs3)n2)cc1 | inconclusive [inhibitor, partial curve]
Cc1ccc(NC(=O)c2ccc(COc3ccccc3[N+](=O)[O-])o2)nc1 | inconclusive [inhibitor, single point]
